# The other results are listed elsewhere or left out.
# How the values were obtained:
# [1] = tested on: HSkMC (human skeletal muscle cells); assay: cytotoxicity call (relative viability < 0.9); settings: 10 µM
# [2] = tested on: HepG2; assay: cytotoxicity call (relative viability < 0.9); settings: 10 µM
# [3] = tested on: S. aureus RN4220; assay: growth inhibition call (relative growth <= 0.2); settings: 50 µM
Structure (SMILES),cytotoxicity call [1],cytotoxicity call [2],growth inhibition call [3]
C[C@H](CO)N1C[C@H](C)[C@H](CN(C)S(=O)(=O)c2ccc(F)cc2)OCCCC[C@H](C)Oc2ccc(NC(=O)CCCCCC(=O)Nc3ccccc3N)cc2C1=O,inactive,inactive,inactive
CCC[C@@H](O)C#Cc1cnc2c(c1)C(=O)N([C@H](C)CO)C[C@H](C)[C@H](CN(C)C(=O)Nc1ccc3c(c1)OCO3)O2,inactive,inactive,inactive
COc1ccc(NC(=O)Nc2cccc3c2O[C@@H](CN(C)S(=O)(=O)c2cn(C)cn2)[C@H](C)CN([C@H](C)CO)C3=O)cc1,inactive,inactive,inactive
COc1ccc(S(=O)(=O)Nc2ccc3c(c2)C(=O)N([C@@H](C)CO)C[C@H](C)[C@@H](CN(C)C(=O)C2CCCCC2)OCCCC[C@H](C)O3)cc1,inactive,inactive,inactive
COCCNC(=O)C[C@H]1C[C@@H]2c3cc(NC(=O)COC)ccc3O[C@@H]2[C@@H](CO)O1,inactive,inactive,inactive
COc1cccc(-c2ccc3c(c2)O[C@H](CN(C)C(=O)C2CCC2)[C@H](C)CN([C@@H](C)CO)S3(=O)=O)c1,inactive,inactive,inactive
C[C@H](CO)N1C[C@H](C)[C@@H](CN(C)C(=O)Nc2ccccc2)Oc2c(NC(=O)C3CCOCC3)cccc2C1=O,inactive,inactive,inactive
COc1ccc(-c2ccc3c(c2)O[C@H](CN(C)CC2CCOCC2)[C@@H](C)CN([C@H](C)CO)S3(=O)=O)cc1,inactive,inactive,inactive
CCS(=O)(=O)N1CCc2ccc(N)cc2C1,inactive,inactive,inactive
C[C@@H]1CN([C@@H](C)CO)C(=O)c2cccc(NC(=O)C3CCOCC3)c2O[C@H]1CN(C)C(=O)NC1CCCCC1,inactive,inactive,inactive
CNC[C@H](O)c1cccc(O)c1,inactive,inactive,inactive
C[C@H](CO)N1C[C@H](C)[C@@H](CN(C)Cc2ccc(Oc3ccccc3)cc2)Oc2c(NC(=O)Nc3ccc4c(c3)OCO4)cccc2C1=O,inactive,inactive,inactive
C[C@@H]1CN([C@@H](C)CO)S(=O)(=O)c2ccc(-c3cccnc3)cc2O[C@@H]1CN(C)C(=O)NC1CCCC1,inactive,inactive,inactive
C[C@H]1CCCCO[C@H](CN(C)S(=O)(=O)c2ccc(F)cc2)[C@@H](C)CN([C@@H](C)CO)C(=O)c2cc(NS(=O)(=O)c3ccc(Cl)cc3)ccc2O1,inactive,active,inactive
CCc1ccc(Nc2c3c(nc4ccccc24)CCC3)cc1,inactive,active,inactive
C[C@@H]1CN([C@H](C)CO)S(=O)(=O)c2ccc(C#CCN(C)C)cc2O[C@@H]1CN(C)C(=O)c1ccccc1F,inactive,inactive,inactive
C[C@@H]1CN([C@H](C)CO)C(=O)Cc2cc(NC(=O)Cn3cnnn3)ccc2O[C@@H]1CN(C)C(=O)Nc1cccc2ccccc12,inactive,inactive,inactive
COc1ccc(NC(=O)Nc2ccc3c(c2)C(=O)N([C@@H](C)CO)C[C@H](C)[C@@H](CN(C)C(=O)CCC(F)(F)F)OCCCC[C@H](C)O3)cc1,inactive,inactive,inactive
C[C@H]1CN([C@@H](C)CO)C(=O)Cc2cc(NS(=O)(=O)c3cn(C)cn3)ccc2O[C@H]1CN(C)C(=O)NC1CCCCC1,inactive,inactive,inactive
COc1ccc(NC(=O)N2C[C@@H](O)COC[C@@H]3O[C@@H](CC(=O)NCc4ccccc4OC)CC[C@H]32)cc1,inactive,inactive,inactive
C[C@@H]1CN([C@H](C)CO)C(=O)Cc2cc(NS(=O)(=O)c3cn(C)cn3)ccc2O[C@H]1CN(C)S(=O)(=O)c1cccs1,inactive,inactive,inactive
CN(C)C(=O)C[C@@H]1C=C[C@@H](NC(=O)C2CCOCC2)[C@H](CO)O1,inactive,inactive,inactive
C=C[C@H](CO[Si](CC)(CC)CC)N(Cc1ccc(OC(C)=O)c(OC)c1)S(=O)(=O)c1ccc(Br)cc1,inactive,inactive,inactive
C[C@@H]1CCCCO[C@H](CN(C)Cc2ccccc2)[C@H](C)CN([C@@H](C)CO)C(=O)c2cc(NC(=O)Nc3ccc(C(F)(F)F)cc3)ccc2O1,active,active,inactive
CCCOc1ccc(=O)n(C)n1,inactive,inactive,inactive
C[C@@H]1CN([C@@H](C)CO)C(=O)c2cc(NC(=O)Cn3cnnn3)ccc2O[C@H]1CN(C)S(C)(=O)=O,inactive,inactive,inactive
C[C@H](CO)N1C[C@H](C)[C@H](CN(C)Cc2ccc3c(c2)OCO3)Oc2ccc(NC(=O)Nc3ccc(C(F)(F)F)cc3)cc2C1=O,active,active,inactive

# Source: the antibiotic and cytotoxicity screens of Wong et al. (2023)
